Laboratory results as given in PubChem BioAssay AID588855 (National Center for Advancing Translational Sciences (NCATS), 2011).
Where “and” joins values, the source holds several entries; their conditions need not be identical. Equal entries are not always repeated. The campaign covered roughly 410,000 compounds. About 5,000 (1.2%) were called active. Inconclusive results, whose numbers are uncertain, are shown with a selection of clear calls. The call rests on the fitted dose curve; in most records, active means well fitted inhibition curve with a large enough effect; inconclusive means small, poorly fitted or top-dose-only effect; inactive means no such curve, though single readings can be large or run the other way. Potencies beside an inconclusive call are fits to weak or partial responses and may not hold up.

Assay: qHTS for Inhibitors of TGF-b; further: nearly all actives have a fitted effect of over 65% in size
Conditions: HepG2 CAGA-GFP TGF-b/SMAD3 reporter, GFP fluorescence, 18 h, TGF-beta stimulated, 500 pg/mL final; series mostly up to 46.1 µM; activity, negative = inhibition: at the top concentration
How it was run: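 GFP signal (ex488/em500-530) from TGF-beta-stimulated HEPG2 CAGA-GFP cells, 500 pg/mL final, 18 h at 37 degrees C in DMEM plus 1% FBS, normalized to unstimulated and DMSO-stimulated controls.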
On the % scale 0 is the no-effect control and ±100 the full control effect; potency means the concentration at half of the fitted maximal effect; tags describe the fitted curve by direction and shape.

Structure (SMILES)	Potency	activity, negative = inhibition
O=C(COc1ccccc1)Nc1cccc(-c2nc3ccccc3[nH]2)c1	inconclusive: 35.5 µM [inhibitor, single point]	–
O=C(NCc1ccc(Cl)cc1)C1CCC(CNS(=O)(=O)c2ccccc2)CC1 (stereo not given)	inconclusive: 35.5 µM [inhibitor, partial curve, poor fit]	–
CCOc1ccc(N(C)C(=O)C2CCN(S(=O)(=O)c3c(C)noc3/C=C/c3ccc(C)cc3)CC2)cc1	inconclusive: 3.55 µM [inhibitor, full curve, poor fit]	–
S=C(Nc1ccc(Cl)cc1Cl)NC1CCN(Cc2ccccc2)CC1	inconclusive: 15.8 µM [inhibitor, partial curve, poor fit]	–
CCOc1nc2ccccc2cc1C=O	–	inactive: 5.36%
COc1ccc(Cl)cc1NC(=O)CSc1nc2c(oc3ccccc32)c(=O)n1Cc1ccco1	inconclusive: 1 µM [inhibitor, full curve, poor fit]	–
COc1ccc(-c2c(C(F)(F)F)[nH]n3c(=O)cc(-c4ccccc4)nc23)cc1	inconclusive: 3.98 µM [inhibitor, partial curve]	–
CCOC(=O)C(NC(=O)CC)(Nc1cc(C)on1)C(F)(F)F (stereo not given)	–	inactive: -4.36%
O=C1c2ccccc2C(=O)N1CCc1csc(-c2ccc(F)cc2)n1	–	inactive: 8.94%
Cc1ccc(C(=O)Nc2ccc(C(=O)O)cc2)cc1S(=O)(=O)N1CCC(C)CC1	–	inactive: 6.59%
Cc1cccc(-c2nc3scc(CCNS(=O)(=O)c4ccc(F)c(C(F)(F)F)c4)n3n2)c1	inconclusive: 20 µM [inhibitor, partial curve, poor fit]	–
O=C1N2CCCc3cccc(c32)C12Nc1ccccc1S2 (stereo not given)	inconclusive: 22.4 µM [inhibitor, single point]	–
COc1ccc(C(=O)Nc2ccc(N3CCCCCC3)cc2)cc1S(=O)(=O)N1CCOCC1	inconclusive: 25.1 µM [inhibitor, single point]	–
COC(=O)c1ccc(Cn2c(C)c(C(=O)NCc3ccc(Cl)c(Cl)c3)sc2=O)o1	active: 12.6 µM	–
CCOc1ccc(CCNC(=O)c2ccc(C)c(NC3=NC4CS(=O)(=O)CC4S3)c2)cc1 (stereo not given)	–	inactive: 11.1%
COc1ccc(-c2nc(CS(=O)(=O)CC(=O)NCc3ccc(F)cc3)c(C)o2)cc1	–	inactive: 9.73%
CCC(=O)Nc1ccc(NC(=O)CSc2nnc(-c3ccco3)n2CC)cc1	–	inactive: -2.71%
COc1cc(/C=C(\C#N)c2ccccn2)cc(OC)c1O	–	inactive: 29.1%
COc1ccc(NC(=O)C2(C)CCN2CCOc2ccccc2)cc1OC (stereo not given)	–	inactive: -3.35%
Cc1cccc(CN2CCN(CC(=O)NCCc3ccc(Cl)cc3)C2=O)c1	inconclusive: 17.8 µM [inhibitor, partial curve, poor fit]	–
CC(=O)OCC1=C(C(=O)O)N2C(=O)C(NC(=O)Cc3ccccc3)C2SC1 (stereo not given)	–	inactive: 18.3%
Cc1c(C(=O)Nc2ccc(Oc3ccccc3)cc2)sc2nc3n(c(=O)c12)CCC3	–	inactive: -5.18%
Cn1nnnc1Sc1ncnc2scc(-c3ccccc3)c12	inconclusive: 7.08 µM [inhibitor, partial curve] and inconclusive: 4.47 µM [inhibitor, partial curve, poor fit]	–
CCOC(=O)N1CCC2(CC1)C(C#N)=C(N)Oc1c2c(C)nn1-c1cccc(Cl)c1	inconclusive: 35.5 µM [inhibitor, single point]	–

Structure (SMILES)	Potency	activity, negative = inhibition
COc1ccc(NC(=S)N2CCN(Cc3ccco3)CC2)c(OC)c1	inconclusive: 25.1 µM [inhibitor, single point]	–
N#Cc1ccc(NC(=O)COCc2cc(-c3ccco3)on2)cc1	inconclusive: 0.562 µM [inhibitor, partial curve, poor fit]	–
CCCCC(=O)N(C)c1c(CC)nc2c(OCc3cc(Cl)cc(Cl)c3)cccn12	inconclusive: 20 µM [inhibitor, single point]	–
O=c1cc(O)c2c(=O)n(Cc3ccccc3)c3ccccc3c2o1	–	inactive: -4.99%
Cc1ccc(S(=O)(=O)NCc2ccc3[nH]c(C)cc3c2)cc1	inconclusive: 15.8 µM [inhibitor, single point]	–
CC(NC(=O)CN1C(=O)NC2(CCc3ccccc32)C1=O)c1ccc2c(c1)OCCO2 (stereo not given)	–	inactive: 1.86%
Cc1cccc(NC(=O)CSc2nc3n[nH]c(C)c3c(=N)n2-c2cccc(Cl)c2)c1	inconclusive: 5.62 µM [inhibitor, single point]	–
Nc1nc(CN2CCN(c3ccccc3)CC2)nc(Nc2ccc(Cl)cc2)n1	inconclusive: 10 µM [inhibitor, partial curve, poor fit]	–
Cn1cc(Br)c(C(=O)NNC(=O)Nc2ccccc2C(F)(F)F)n1	inconclusive: 17.8 µM [inhibitor, single point]	–
C=CCc1cc(C)ccc1OCC(O)CN1CCN(c2ccccc2)CC1 (stereo not given)	inconclusive: 35.5 µM [inhibitor, single point]	–
O=C(c1cc(-c2ccccc2)on1)N(Cc1cccnc1)C(c1ccccn1)c1nc2ccccc2[nH]1 (stereo not given)	inconclusive: 35.5 µM [inhibitor, single point]	–
Cc1ccc(Nc2nc(-c3ccc(O)cc3O)cs2)nc1	active: 12.6 µM	–
COc1ccc(OC)c(NC(=O)c2cccc(N3C(=O)C4C5C=CC(C6CC56)C4C3=O)c2)c1 (stereo not given)	inconclusive: 3.98 µM [inhibitor, partial curve, poor fit]	–
CCCCC1CCCOC(C(=O)NCCNCCO)(C(F)(F)F)C1 (stereo not given)	inconclusive: 22.4 µM [inhibitor, single point]	–
Brc1ccc(OCCOCCOc2cccc3cccnc23)cc1	inconclusive: 35.5 µM [inhibitor, single point]	–
CCOc1ccc(N(Cc2ccccc2)C(=O)c2nc(SC)ncc2Cl)cc1	inconclusive: 35.5 µM [inhibitor, single point]	–
C=C(C)Cn1c2ccc(NC(=O)NCc3ccc(F)cc3)cc2c(=O)n1C	–	inactive: 12.3%
COc1ccc(Cl)cc1N(C(C)=O)c1nc(C)cc(C)c1C#N	–	inactive: -10%
Cc1cc(C)n2nc(S(=O)(=O)Nc3c(Cl)cccc3Cl)nc2n1	inconclusive: 6.31 µM [inhibitor, single point]	–
Cc1ccc(Sc2ncccc2COC(=O)Nc2c(C)cccc2C)cc1	inconclusive: 35.5 µM [inhibitor, single point]	–
Cc1nn(C)c2c1c(C(F)(F)F)cc(=O)n2Cc1ccc(Br)cc1F	–	inactive: 8.31%
CC(=O)Nc1ccc(NCc2ccc(-c3ccccc3)cc2)cc1	–	inactive: -11.2%
CCn1c2ccccc2c2cc(NC(=O)COC(=O)c3ccccc3O)ccc21	–	inactive: -6.17%
COc1ccccc1N(Cc1cc(=O)[nH]c2ccccc12)C(=O)c1cccc([N+](=O)[O-])c1	–	inactive: -0.664%

Structure (SMILES)	Potency	activity, negative = inhibition
O=C(Nc1cccc(Cl)c1)OCCOC(=O)Nc1cccc(Cl)c1	inconclusive: 35.5 µM [inhibitor, single point]	–
CCCC(=O)Nc1nc(C(=O)OCC)cs1	–	inactive: -2.66%
N#Cc1ccc(CN2CCN(C(=O)c3ccc(S(=O)(=O)N4CCCCCC4)cc3)CC2)cc1	inconclusive: 10 µM [inhibitor, partial curve, poor fit]	–
c1ccc(COc2ncnc3c2ncn3CCCNCc2ccc3c(c2)OCO3)cc1	–	inactive: -4.58%
CCOC(=O)C1=CCN(S(=O)(=O)c2ccccc2C)C1c1cccc(F)c1 (stereo not given)	inconclusive: 4.47 µM [inhibitor, partial curve, poor fit]	–
COc1ccc(/C=N/Nc2cc(C)nc(-n3nc(C)cc3C)n2)c(OC)c1	inconclusive: 11.2 µM [inhibitor, partial curve]	–
COc1ccc(CCNC(=O)c2ccc3nc(N4CCCCC4)sc3c2)cc1OC	–	inactive: -5.95%
O=[N+]([O-])c1ccc(/C=N\NS(=O)(=O)c2ccc(F)cc2)o1	inconclusive: 3.16 µM [inhibitor, full curve]	–
O=C(N/N=C/c1ccncc1)c1ccccn1	–	inactive: -7.25%
N#Cc1c(N2CCN(C(=O)c3ccco3)CC2)nc(-c2ccccc2)c2c1CCCC2	inconclusive: 31.6 µM [inhibitor, single point]	–
CCC1CN(C(=O)N2CCC(C(=O)NCc3ccccc3OC)CC2)c2cc(C)ccc2O1 (stereo not given)	–	inactive: -1.38%
CCN(CC)CCn1c(=N)n(CC(=O)c2ccc(Br)s2)c2ccccc21	inconclusive: 35.5 µM [inhibitor, partial curve, poor fit]	–
Cc1ccc(N2C(=O)N(CC(=O)N3c4ccccc4CC3C)C(=O)C2C)cc1 (stereo not given)	–	inactive: 10.9%
CCCCc1nc2ccccc2c(N)c1CCC (tested in a mixture with another compound)	inconclusive: 17.8 µM [inhibitor, single point]	–
CC(C)CN1CCC(Oc2cccc(C(=O)NCCc3ccccc3)c2)CC1	–	inactive: 0%
Cc1nn(Cc2ccc(Cl)cc2Cl)c(C)c1NC(=O)C1C2CCC(O2)C1C(=O)O (stereo not given)	–	inactive: 5.46%
CCCOc1ccc(C(=O)N2CCC(c3nc4ccccc4s3)CC2)cc1	inconclusive: 35.5 µM [inhibitor, single point]	–
CN(CC(=O)Nc1ccccc1C(F)(F)F)C(=O)Cc1ccccc1F	–	inactive: -1.45%
COc1cccc(C(=O)NCc2ccc(N3CCN(C(=O)OC(C)(C)C)CC3)cc2)c1	inconclusive: 5.62 µM [inhibitor, single point]	–
CCn1nc(C)c(CN2CCCC(CO)(Cc3cccc(Cl)c3)C2)c1C (stereo not given)	inconclusive: 2.51 µM [inhibitor, full curve, poor fit]	–
O=C(C1CC1)N1CCc2cc(Br)cc(S(=O)(=O)Nc3ccc(F)c(F)c3)c21	inconclusive: 22.4 µM [inhibitor, single point]	–
CCCCNC(=O)CCC(=O)Nc1ccc2nc(N3CCC(C)CC3)cc(C)c2c1	–	inactive: -28.9%
